Protocol: The compounds of the present invention were tested in vitro as penetration enhancers according to the procedure outlined below. The penetration enhancers were formulated with pharmacologically active agents in creams and permeation of the active agent through human stratum corneum in vitro was compared to control formulation without enhancer. Higher permeation of the active agent in presence of an enhancer exemplified the invention.
Human stratum corneum was isolated from full thickness human skin as described by Bronaugh et al., J. Pharm. Sci. 75, 1094 (1986). The skin was placed between the donor and the receptor compartments of diffusion cells in such a way that the dermal side of the skin faced the receptor compartment which was filled with normal saline (pH 7.2-7.4). The stratum corneum was equilibrated at 37° C. overnight prior to the application of a topical formulation or transdermal patch. All formulations were studied in triplicate.
About 500 mg of the following three Isosorbide Dinitrate (ISDN) formulations (40% ISDN & 60% Lactose) were applied to cover the stratum corneum surface within the donor compartment. The entire contents of the receptor compartment were removed at specific time intervals over 48 hours and replenished with fresh saline. The aliquots were analyzed by HPLC and the average cumulative amount of ISDN in micrograms permeating over the study period was calculated.

SMILES | Average Cumulative Amount of ISDN in Micrograms permeating over 48 hours [Micrograms] | ISDN permeation enhancement compared to cyclic isomer | ISDN permeation enhancing properties compared to control
CCCCCCCCCCCC1=NCCN1CCO [1-(2-hydroxyethyl)-2-undecyl-2-imidazoline, reference compound] | 872.3 ± 85 | – | –
CCCCCCCCCCCC(=O)NCCNCCO [Example 1, N-[2-(2-hydroxyethyl)aminoethyl]dodecanamide] | 821.3 ± 56 | as effective as its cyclic isomer | superior permeation enhancing properties as compared to control
CCCCCCCCCCCC(=O)N1CCN(CCO)CC1 [Example 5, 1-(1-oxododecyl)-4-(2-hydroxyethyl)piperazine] | 1160.9 ± 73 | – | superior permeation enhancing properties as compared to control

Source: patent US5162315A, “Penetration enhancers” (priority 1989, dated 1992)
